To fix the notation:
B1: der V130A (protein)
chain: MVPVVALVGRPNVGKSTLFNRLTRTRDALVADFPGLTRDRKYGRAEIEGREFICIDTGGIDGTEDGVETRMAEQSLLAIEEADVVLFMVDARAGLMPADEAIAKHLRSREKPTFLVANKTDGLDPDQAVADFYSLGLGEIYPIAASHGRGVLSLLEHVLLPWMEDLAPQEEVDEDAEYWAQFEAEENGEEEEEDDFDPQSLPIKLAIVGRPNVGKSTLTNRILGEERVVVYDMPGTTRDSIYIPMERDGREYVLIDTAGVRKRGKITDAVEKFSVIKTLQAIEDANVVMLVIDAREGISDQDLSLLGFILNSGRSLVIVVNKWDGLSQEVKEQVKETLDFRLGFIDFARVHFISALHGSGVGNLFESVREAYDSSTRRVGTSMLTRIMTMAVEDHQPPLVRGRRVKLKYAHAGGYNPPIVVIHGNQVKDLPDSYKRYLMNYFRKSLDVMGSPIRIQFKEGENPYANKRNTLTPTQMRKRKRLMKHIKKNK
B2: der V130Q (protein)
chain: MVPVVALVGRPNVGKSTLFNRLTRTRDALVADFPGLTRDRKYGRAEIEGREFICIDTGGIDGTEDGVETRMAEQSLLAIEEADVVLFMVDARAGLMPADEAIAKHLRSREKPTFLVANKTDGLDPDQAVQDFYSLGLGEIYPIAASHGRGVLSLLEHVLLPWMEDLAPQEEVDEDAEYWAQFEAEENGEEEEEDDFDPQSLPIKLAIVGRPNVGKSTLTNRILGEERVVVYDMPGTTRDSIYIPMERDGREYVLIDTAGVRKRGKITDAVEKFSVIKTLQAIEDANVVMLVIDAREGISDQDLSLLGFILNSGRSLVIVVNKWDGLSQEVKEQVKETLDFRLGFIDFARVHFISALHGSGVGNLFESVREAYDSSTRRVGTSMLTRIMTMAVEDHQPPLVRGRRVKLKYAHAGGYNPPIVVIHGNQVKDLPDSYKRYLMNYFRKSLDVMGSPIRIQFKEGENPYANKRNTLTPTQMRKRKRLMKHIKKNK
B3: der V130W (protein)
chain: MVPVVALVGRPNVGKSTLFNRLTRTRDALVADFPGLTRDRKYGRAEIEGREFICIDTGGIDGTEDGVETRMAEQSLLAIEEADVVLFMVDARAGLMPADEAIAKHLRSREKPTFLVANKTDGLDPDQAVWDFYSLGLGEIYPIAASHGRGVLSLLEHVLLPWMEDLAPQEEVDEDAEYWAQFEAEENGEEEEEDDFDPQSLPIKLAIVGRPNVGKSTLTNRILGEERVVVYDMPGTTRDSIYIPMERDGREYVLIDTAGVRKRGKITDAVEKFSVIKTLQAIEDANVVMLVIDAREGISDQDLSLLGFILNSGRSLVIVVNKWDGLSQEVKEQVKETLDFRLGFIDFARVHFISALHGSGVGNLFESVREAYDSSTRRVGTSMLTRIMTMAVEDHQPPLVRGRRVKLKYAHAGGYNPPIVVIHGNQVKDLPDSYKRYLMNYFRKSLDVMGSPIRIQFKEGENPYANKRNTLTPTQMRKRKRLMKHIKKNK
B4: der V130D (protein)
chain: MVPVVALVGRPNVGKSTLFNRLTRTRDALVADFPGLTRDRKYGRAEIEGREFICIDTGGIDGTEDGVETRMAEQSLLAIEEADVVLFMVDARAGLMPADEAIAKHLRSREKPTFLVANKTDGLDPDQAVDDFYSLGLGEIYPIAASHGRGVLSLLEHVLLPWMEDLAPQEEVDEDAEYWAQFEAEENGEEEEEDDFDPQSLPIKLAIVGRPNVGKSTLTNRILGEERVVVYDMPGTTRDSIYIPMERDGREYVLIDTAGVRKRGKITDAVEKFSVIKTLQAIEDANVVMLVIDAREGISDQDLSLLGFILNSGRSLVIVVNKWDGLSQEVKEQVKETLDFRLGFIDFARVHFISALHGSGVGNLFESVREAYDSSTRRVGTSMLTRIMTMAVEDHQPPLVRGRRVKLKYAHAGGYNPPIVVIHGNQVKDLPDSYKRYLMNYFRKSLDVMGSPIRIQFKEGENPYANKRNTLTPTQMRKRKRLMKHIKKNK
B5: def I131A (protein)
chain: MSVLQVLHIPDERLRKVAKPVEEVNAEIQRIVDDMFETMYAEEGIGLAATQVDIHQRIIVIDVSENRDERLVLINPELLEKSGETGIEEGCLSIPEQRALVPRAEKVKIRALDRDGKPFELEADGLLAICAQHEMDHLVGKLFMDYLSPLKQQRIRQKVEKLDRLKARA
B6: dapE M107Q (protein)
chain: MSCPVIELTQQLIRRPSLSPDDAGCQALLIERLQAIGFTVERMDFADTQNFWAWRGQGETLAFAGHTDVVPPGDADRWINPPFEPTIRDGMLFGRGAADMKGSLAAQVVAAERFVAQHPNHTGRLAFLITSDEEASAHNGTVKVVEALMARNERLDYCLVGEPSSIEVVGDVVKNGRRGSLTCNLTIHGVQGHVAYPHLADNPVHRAAPFLNELVAIEWDQGNEFFPATSMQIANIQAGTGSNNVIPGELFVQFNFRFSTELTDEMIKAQVLALLEKHQLRYTVDWWLSGQPFLTARGKLVDAVVNAVEHYNEIKPQLLTTGGTSDGRFIARMGAQVVELGPVNATIHKINECVNAADLQLLARMYQRIMEQLVA
B7: dapE M365W (protein)
chain: MSCPVIELTQQLIRRPSLSPDDAGCQALLIERLQAIGFTVERMDFADTQNFWAWRGQGETLAFAGHTDVVPPGDADRWINPPFEPTIRDGMLFGRGAADMKGSLAAMVVAAERFVAQHPNHTGRLAFLITSDEEASAHNGTVKVVEALMARNERLDYCLVGEPSSIEVVGDVVKNGRRGSLTCNLTIHGVQGHVAYPHLADNPVHRAAPFLNELVAIEWDQGNEFFPATSMQIANIQAGTGSNNVIPGELFVQFNFRFSTELTDEMIKAQVLALLEKHQLRYTVDWWLSGQPFLTARGKLVDAVVNAVEHYNEIKPQLLTTGGTSDGRFIARMGAQVVELGPVNATIHKINECVNAADLQLLARWYQRIMEQLVA
B8: dapE M365Q (protein)
chain: MSCPVIELTQQLIRRPSLSPDDAGCQALLIERLQAIGFTVERMDFADTQNFWAWRGQGETLAFAGHTDVVPPGDADRWINPPFEPTIRDGMLFGRGAADMKGSLAAMVVAAERFVAQHPNHTGRLAFLITSDEEASAHNGTVKVVEALMARNERLDYCLVGEPSSIEVVGDVVKNGRRGSLTCNLTIHGVQGHVAYPHLADNPVHRAAPFLNELVAIEWDQGNEFFPATSMQIANIQAGTGSNNVIPGELFVQFNFRFSTELTDEMIKAQVLALLEKHQLRYTVDWWLSGQPFLTARGKLVDAVVNAVEHYNEIKPQLLTTGGTSDGRFIARMGAQVVELGPVNATIHKINECVNAADLQLLARQYQRIMEQLVA
B9: dapE M365A (protein)
chain: MSCPVIELTQQLIRRPSLSPDDAGCQALLIERLQAIGFTVERMDFADTQNFWAWRGQGETLAFAGHTDVVPPGDADRWINPPFEPTIRDGMLFGRGAADMKGSLAAMVVAAERFVAQHPNHTGRLAFLITSDEEASAHNGTVKVVEALMARNERLDYCLVGEPSSIEVVGDVVKNGRRGSLTCNLTIHGVQGHVAYPHLADNPVHRAAPFLNELVAIEWDQGNEFFPATSMQIANIQAGTGSNNVIPGELFVQFNFRFSTELTDEMIKAQVLALLEKHQLRYTVDWWLSGQPFLTARGKLVDAVVNAVEHYNEIKPQLLTTGGTSDGRFIARMGAQVVELGPVNATIHKINECVNAADLQLLARAYQRIMEQLVA
B10: dapE L92A (protein)
chain: MSCPVIELTQQLIRRPSLSPDDAGCQALLIERLQAIGFTVERMDFADTQNFWAWRGQGETLAFAGHTDVVPPGDADRWINPPFEPTIRDGMAFGRGAADMKGSLAAMVVAAERFVAQHPNHTGRLAFLITSDEEASAHNGTVKVVEALMARNERLDYCLVGEPSSIEVVGDVVKNGRRGSLTCNLTIHGVQGHVAYPHLADNPVHRAAPFLNELVAIEWDQGNEFFPATSMQIANIQAGTGSNNVIPGELFVQFNFRFSTELTDEMIKAQVLALLEKHQLRYTVDWWLSGQPFLTARGKLVDAVVNAVEHYNEIKPQLLTTGGTSDGRFIARMGAQVVELGPVNATIHKINECVNAADLQLLARMYQRIMEQLVA
B11: dapE L92Q (protein)
chain: MSCPVIELTQQLIRRPSLSPDDAGCQALLIERLQAIGFTVERMDFADTQNFWAWRGQGETLAFAGHTDVVPPGDADRWINPPFEPTIRDGMQFGRGAADMKGSLAAMVVAAERFVAQHPNHTGRLAFLITSDEEASAHNGTVKVVEALMARNERLDYCLVGEPSSIEVVGDVVKNGRRGSLTCNLTIHGVQGHVAYPHLADNPVHRAAPFLNELVAIEWDQGNEFFPATSMQIANIQAGTGSNNVIPGELFVQFNFRFSTELTDEMIKAQVLALLEKHQLRYTVDWWLSGQPFLTARGKLVDAVVNAVEHYNEIKPQLLTTGGTSDGRFIARMGAQVVELGPVNATIHKINECVNAADLQLLARMYQRIMEQLVA
B12: dapE L159A (protein)
chain: MSCPVIELTQQLIRRPSLSPDDAGCQALLIERLQAIGFTVERMDFADTQNFWAWRGQGETLAFAGHTDVVPPGDADRWINPPFEPTIRDGMLFGRGAADMKGSLAAMVVAAERFVAQHPNHTGRLAFLITSDEEASAHNGTVKVVEALMARNERLDYCAVGEPSSIEVVGDVVKNGRRGSLTCNLTIHGVQGHVAYPHLADNPVHRAAPFLNELVAIEWDQGNEFFPATSMQIANIQAGTGSNNVIPGELFVQFNFRFSTELTDEMIKAQVLALLEKHQLRYTVDWWLSGQPFLTARGKLVDAVVNAVEHYNEIKPQLLTTGGTSDGRFIARMGAQVVELGPVNATIHKINECVNAADLQLLARMYQRIMEQLVA

± gives the standard deviation of the averaged measurements. Laboratory Escherichia coli strains with one amino-acid change in an essential protein, pooled on minimal glucose agar with carbenicillin or gentamicin at twice the control MIC (plus kanamycin and chloramphenicol for the plasmids), 48 h. Fold change of barcode share against drug-free plates; higher = less susceptible. Active = above 20 in both replicates (the paper's putatively resistant). '<' = one read or none on drug, '>' = one read or none on a drug-free plate. Shares are relative, so most strains fall below 1 when a few take over. Listed are strains with at least 15 reads on both drug-free plates, and hits; most hits rest on fewer reference reads. Replicate rank correlation about 0.5. Edits are read from barcodes. Where only a bound is given, the exact number is not on record here.

In one series the target is Escherichia coli (laboratory strain). Briefly: barcode share on antibiotic plates over drug-free plates; higher = less susceptible. The note with it: antibiotic: carbenicillin; 2× MIC (3.1 µg/mL). Here is the method:
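A pool of E. coli strains, each edited to carry one amino-acid change in an essential protein, was grown for 48 h on minimal glucose agar with or without antibiotic; strain barcodes were sequenced; mean of two replicates.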
B1: the “fold change of barcode share” value worked out at 0.359 ± 0.22.

On to B2, for which the “fold change of barcode share” value amounted to 0.372 ± 0.08.

Regarding B3, the “fold change of barcode share” value is 0.207 ± 0.084.

Regarding B4, the “fold change of barcode share” value amounted to 0.297 ± 0.18.

On to B5, for which the “fold change of barcode share” value worked out at 0.276 ± 0.055.

For B6, the “fold change of barcode share” value was found to be 0.432 ± 0.059.

Turning to B7, the “fold change of barcode share” value is 0.213 ± 0.11.

Regarding B8, the “fold change of barcode share” value was 0.197 ± 0.022.

Regarding B9, the “fold change of barcode share” value amounted to 0.181 ± 0.14.

On to B10, for which the “fold change of barcode share” value amounted to 0.561 ± 0.38.

As to B11, the “fold change of barcode share” value came out at 1.12 ± 0.93.

As to B12, the “fold change of barcode share” value turned out to be 0.398 ± 0.2.

Still in this series, the particulars now being: antibiotic: gentamicin; 2× MIC (MIC 0.45 µg/mL).
Take B1: the “fold change of barcode share” value was 0.0583 ± 0.073.

As to B2, the “fold change of barcode share” value stood at 0.00688 ± 0.0045.

For the protein B3, the “fold change of barcode share” value is under 0.00416.

Take B4: the “fold change of barcode share” value is under 0.0039.

For the protein B5, the “fold change of barcode share” value worked out at 0.0142 ± 0.0022.

B6: the “fold change of barcode share” value is 0.328 ± 0.46.

As for B7, the “fold change of barcode share” value is under 0.00699.

Turning to B8, the “fold change of barcode share” value was under 0.00453.

For B9, the “fold change of barcode share” value was under 0.0101.

Consider B10, for which the “fold change of barcode share” value was under 0.012.

The values are drawn from the supplement of paper PMC11876631.
